By IC50 is meant the dose at which the fit gives 50% viability; fits outside the tested doses are given as limits. For AUC the same curve is integrated over the 256-fold range of doses and scaled to a fraction; the more sensitive the line, the further below 1.
Compound: NC1(c2ccc(-c3nc4ccn5c(=O)[nH]nc5c4cc3-c3ccccc3)cc2)CCC1 [MK-2206]
Assay: Viability of human cancer cell lines after 72 h of drug (GDSC screen)
Method: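 Human cancer cell lines in 384-well plates, medium with 10% serum, drug for 72 h over a 256-fold dose range (nine 2-fold or five 4-fold steps up to the top dose). Adherent lines were fixed and stained with the nucleic acid dye Syto60, suspension lines read with resazurin; signal relative to control wells, capped at 0 and 100%. One two-parameter sigmoid per drug and line, fitted in a mixed model over all curves with the slope shared within a line.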

Cell Line | AUC | IC50
GMS-10 (glioma, adherent, top dose 4 µM) | 0.947 | > 4000 nM
MV-4-11 (leukaemia, suspension, top dose 4 µM) | 0.832 | 1950 nM
RT4 (bladder, adherent, top dose 4 µM) | 0.987 | > 4000 nM
P30-OHK (lymphoblastic leukaemia, suspension, top dose 4 µM) | 0.781 | 1380 nM
NUGC-4 (stomach, adherent, top dose 4 µM) | 0.951 | > 4000 nM
BICR78 (head and neck, adherent, top dose 4 µM) | 0.776 | 1850 nM
KS-1 (glioma, adherent, top dose 4 µM) | 0.772 | 1930 nM
OACM5-1 (oesophagus, semi-adherent, top dose 4 µM) | 0.978 | > 4000 nM
NB69 (neuroblastoma, adherent, top dose 4 µM) | 0.807 | 1780 nM
PC-3 [JPC-3] (lung adenocarcinoma, adherent, top dose 4 µM) | 0.955 | > 4000 nM
RO82-W-1 (thyroid, adherent, top dose 4 µM) | 0.913 | > 4000 nM
Ca-Ski (cervix, adherent, top dose 4 µM) | 0.704 | 1010 nM
OE33 (oesophagus, adherent, top dose 4 µM) | 0.948 | > 4000 nM
OCI-AML3 (acute myeloid leukaemia, suspension, top dose 4 µM) | 0.934 | > 4000 nM
CHSA8926 (chondrosarcoma, adherent, top dose 4 µM) | 0.827 | > 4000 nM
NB13 (neuroblastoma, adherent, top dose 4 µM) | 0.947 | > 4000 nM
HT-115 (large intestine, adherent, top dose 4 µM) | 0.954 | > 4000 nM
LS-1034 (large intestine, adherent, top dose 4 µM) | 0.978 | > 4000 nM
SK-MEL-1 (melanoma, suspension, top dose 4 µM) | 0.993 | > 4000 nM
COLO-783 (melanoma, adherent, top dose 4 µM) | 0.931 | > 4000 nM

Cell Line | AUC | IC50
GR-ST (lymphoblastic leukaemia, suspension, top dose 4 µM) | 0.817 | 2860 nM
KM12 (large intestine, adherent, top dose 4 µM) | 0.951 | > 4000 nM
HGC-27 (stomach, adherent, top dose 4 µM) | 0.652 | 613 nM
Hs633T (fibrosarcoma, adherent, top dose 4 µM) | 0.869 | 2590 nM
NCI-H1092 (small cell lung carcinoma, suspension, top dose 4 µM) | 0.984 | > 4000 nM
NCC021 (kidney, adherent, top dose 4 µM) | 0.708 | 1080 nM
NCI-H322M (lung adenocarcinoma, suspension, top dose 4 µM) | 0.984 | > 4000 nM
KU812 (chronic myeloid leukaemia, suspension, top dose 4 µM) | 0.879 | 3470 nM
SK-MEL-3 (melanoma, adherent, top dose 4 µM) | 0.936 | > 4000 nM
NCI-H835 (lung carcinoid, suspension, top dose 4 µM) | 0.904 | > 4000 nM
SK-N-SH (neuroblastoma, adherent, top dose 4 µM) | 0.813 | 2130 nM
MHH-ES-1 (Ewing sarcoma, adherent, top dose 4 µM) | 0.822 | 2290 nM
NCI-H211 (small cell lung carcinoma, adherent, top dose 4 µM) | 0.987 | > 4000 nM
CMK (acute myeloid leukaemia, suspension, top dose 4 µM) | 0.991 | > 4000 nM
Ramos-2G6-4C10 (Burkitt lymphoma, suspension, top dose 4 µM) | 0.697 | 810 nM
WSU-NHL (lymphoid neoplasm, suspension, top dose 4 µM) | 0.47 | 209 nM
NCI-H1048 (small cell lung carcinoma, adherent, top dose 4 µM) | 0.824 | 2060 nM
MFM-223 (breast, adherent, top dose 4 µM) | 0.668 | 727 nM
KMRC-1 (kidney, adherent, top dose 4 µM) | 0.931 | > 4000 nM
CHSA0011 (chondrosarcoma, adherent, top dose 4 µM) | 0.771 | 2180 nM

Cell Line | AUC | IC50
CW-2 (large intestine, adherent, top dose 4 µM) | 0.953 | > 4000 nM
COLO-205 (large intestine, suspension, top dose 4 µM) | 0.848 | 2910 nM
HCC-56 (large intestine, adherent, top dose 4 µM) | 0.946 | > 4000 nM
huH-1 (liver, adherent, top dose 4 µM) | 0.768 | 1850 nM
SUP-B8 (B-cell leukaemia, suspension, top dose 4 µM) | 0.815 | 2160 nM
NCI-H1155 (large cell lung carcinoma, suspension, top dose 4 µM) | 0.858 | 2390 nM
MEL-HO (melanoma, adherent, top dose 4 µM) | 0.863 | 3510 nM
KYSE-150 (oesophagus, adherent, top dose 4 µM) | 0.986 | > 4000 nM
JURL-MK1 (chronic myeloid leukaemia, suspension, top dose 4 µM) | 0.907 | > 4000 nM
CL-40 (large intestine, adherent, top dose 4 µM) | 0.863 | > 4000 nM
TE-1 (oesophagus, adherent, top dose 4 µM) | 0.948 | > 4000 nM
NB5 (neuroblastoma, adherent, top dose 4 µM) | 0.842 | 2850 nM
GA-10 (Burkitt lymphoma, suspension, top dose 4 µM) | 0.647 | 594 nM
NCI-H524 (small cell lung carcinoma, suspension, top dose 4 µM) | 0.919 | > 4000 nM
NCI-H1304 (small cell lung carcinoma, suspension, top dose 4 µM) | 0.962 | > 4000 nM
C2BBe1 (large intestine, adherent, top dose 2 µM) | 0.983 | > 2000 nM
SCC-9 (head and neck, adherent, top dose 4 µM) | 0.969 | > 4000 nM
YH-13 (glioma, adherent, top dose 4 µM) | 0.757 | 1440 nM
D-247MG (glioma, adherent, top dose 4 µM) | 0.9 | > 4000 nM
COLO-668 (small cell lung carcinoma, adherent, top dose 4 µM) | 0.962 | > 4000 nM

Reference: the supplement of paper PMC4967469
